Inconclusive results are not listed. For part of its entries the source gives two or more results. This list holds those alone. An entry can have further records. Results that share an entry are repeats across runs, samples, wells, individuals or studies. Marks such as (2×) stand for listed records that agree.
System: BDF1 mice, colon carcinoma 38 sc, T/C %
Experiment: NCI In Vivo Anticancer Drug Screen. Data for tumor model Colon Carcinoma 38 (subcutaneous) in B6D2F1 (BDF1) mice
Details: endpoint: median tumor weight (est.), higher = larger tumour
Procedure, shortened: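 Transplantable tumor in mice; compound-treated vs vehicle-dosed controls. Measured survival or tumor size; value = T ÷ C.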

[1] = dose: 50.0 mg/kg/injection, schedule: Q07DX002 (ip), vehicle: saline
[2] = dose: 100.0 mg/kg/injection, schedule: Q07DX002 (ip), vehicle: saline
[3] = dose: 12.5 mg/kg/injection, schedule: Q07DX002 (ip), vehicle: saline with Tween-80
[4] = dose: 25.0 mg/kg/injection, schedule: Q07DX002 (ip), vehicle: saline
[5] = dose: 400.0 mg/kg/injection, schedule: Q07DX002 (ip), vehicle: saline
[6] = dose: 25.0 mg/kg/injection, schedule: Q07DX002 (ip), vehicle: saline with Tween-80
[7] = dose: 50.0 mg/kg/injection, schedule: Q07DX002 (ip), vehicle: saline with Tween-80
[8] = dose: 50.0 mg/kg/injection, schedule: Q07DX002 (ip), vehicle: Klucel (hydroxypropylcellulose) (HPC)
[9] = dose: 100.0 mg/kg/injection, schedule: Q07DX002 (ip), vehicle: Klucel (hydroxypropylcellulose) (HPC)
[10] = dose: 400.0 mg/kg/injection, schedule: Q07DX002 (ip), vehicle: Klucel (hydroxypropylcellulose) (HPC)
[11] = dose: 12.5 mg/kg/injection, schedule: Q07DX002 (ip), vehicle: Klucel (hydroxypropylcellulose) (HPC)

Structure (SMILES): O=c1[nH]c(=O)c2nc(-c3cccnc3)cnc2[nH]1
- T/C [1]: 86 % of control and 120 % of control
- T/C [2]: 78 % of control and 113 % of control

Structure (SMILES): CC1CN=C(c2ccc(NC(=O)c3ccc(C(=O)Nc4ccc(C5=NCC(C)N5)cc4)cc3)cc2)N1 (stereo unspecified)
- T/C (dose: 50.0 mg/kg/injection, schedule: Q07DX003 (ip), vehicle: Klucel (hydroxypropylcellulose) (HPC)): 71 % of control and 107 % of control
- T/C (dose: 100.0 mg/kg/injection, schedule: Q07DX003 (ip), vehicle: Klucel (hydroxypropylcellulose) (HPC)): 56 % of control and 86 % of control

Structure (SMILES): Cc1ccc(NC(=O)Oc2ccc(Br)cc2Br)c([N+](=O)[O-])c1
- T/C [3]: 59 % of control and 117 % of control

Structure (SMILES): Nc1nc([Se])c2ncn(C3OC(CO)C(O)C3O)c2n1 (stereo unspecified)
- T/C (dose: 32.0 mg/kg/injection, schedule: Q07DX002 (ip), vehicle: suspension in saline): 72 % of control and 122 % of control

Structure (SMILES): CCOC(=O)C(N)CSC(=O)NC (stereo unspecified)
- T/C (dose: 12.5 mg/kg/injection, schedule: Q07DX002 (ip), vehicle: saline): 77 % of control and 183 % of control
- T/C [4]: 81 % of control and 118 % of control
- T/C [1]: 67 % of control and 123 % of control
- T/C [2]: 41 % of control and 171 % of control
- T/C (dose: 200.0 mg/kg/injection, schedule: Q07DX002 (ip), vehicle: saline): 74 % of control and 173 % of control
- T/C [5]: 124 % of control and 170 % of control

Structure (SMILES): COC(=O)C(F)C(Br)C(=O)OC (stereo unspecified)
- T/C [6]: 116 % of control and 155 % of control
- T/C [7]: 90 % of control and 179 % of control

Structure (SMILES): CC[C@]1(O)C[C@H]2CN(CCc3c([nH]c4ccccc34)[C@@](C(=O)OC)(c3cc4c(cc3OC)N(C=O)[C@H]3[C@@](O)(C(=O)OC)[C@H](OC(C)=O)[C@]5(CC)C=CCN6CC[C@]43[C@@H]65)C2)C1
- T/C (dose: 0.25 mg/kg/injection, schedule: Q07DX002 (ip), vehicle: saline): 65 % of control, 102 % of control, 103 % of control
- T/C (dose: 0.5 mg/kg/injection, schedule: Q07DX002 (ip), vehicle: saline): 37 % of control and 77 % of control
- T/C (dose: 2.0 mg/kg/injection, schedule: Q07DX002 (ip), vehicle: saline): 49 % of control and 93 % of control

Structure (SMILES): CC(=O)[O][Pb]([O]C(C)=O)([c]1ccccc1)[c]1ccccc1
- T/C [8]: 24 % of control and 112 % of control
- T/C [9]: 44 % of control and 159 % of control
- T/C [10]: 51 % of control and 168 % of control

Structure (SMILES): Cc1ccc(C(=O)[O][Hg][CH2]C2COC([CH2][Hg][O]C(=O)c3ccc(C)cc3)CO2)cc1 (stereo unspecified)
- T/C (dose: 6.25 mg/kg/injection, schedule: Q07DX002 (ip), vehicle: Klucel (hydroxypropylcellulose) (HPC)): 123 % of control and 183 % of control
- T/C [11]: 93 % of control and 153 % of control

Structure (SMILES): O=C(Nc1nncs1)c1ccncc1
- T/C [6]: 92 % of control and 123 % of control

Structure (SMILES): COc1ccc(C(Cn2ccnc2)Sc2ccc(Cl)c(Cl)c2)cc1 (stereo unspecified)
- T/C [3]: 103 % of control and 159 % of control
- T/C [7]: 65 % of control and 101 % of control

Structure (SMILES): O=C([CH-]C(=O)C(F)(F)F)c1ccccc1.O=C([CH-]C(=O)C(F)(F)F)c1ccccc1.O=C([CH-]C(=O)C(F)(F)F)c1ccccc1.O=C([CH-]C(=O)C(F)(F)F)c1ccccc1.[Eu+3].c1ccncc1
- T/C [11]: 69 % of control and 102 % of control
- T/C [10]: 75 % of control and 122 % of control

Structure (SMILES): C1OC1C1CO1 (stereo unspecified)
- T/C (dose: 2.5 mg/kg/injection, schedule: Q07DX002 (ip), vehicle: saline): 55 % of control and 107 % of control
- T/C (dose: 5.0 mg/kg/injection, schedule: Q07DX002 (ip), vehicle: saline): 72 % of control and 176 % of control

Structure (SMILES): CC(C)CCCCCCCCCCCCC(=O)NCC(=O)NC1C(C)OC(Nc2ncnc3nc[nH]c23)C(O)C1O (stereo unspecified)
- T/C (dose: 1.0 mg/kg/injection, schedule: Q07DX002 (ip), vehicle: distilled water + Tween-80): 113 % of control and 192 % of control

Structure (SMILES): CC1OC(=O)C(C(C)C)NC(=O)C(C(C)C)OC(=O)C(C(C)C)NC(=O)C(C)OC(=O)C(C(C)C)NC(=O)C(C(C)C)OC(=O)C(C(C)C)NC(=O)C(C)OC(=O)C(C(C)C)NC(=O)C(C(C)C)OC(=O)C(C(C)C)NC1=O (stereo unspecified)
- T/C (dose: 1.25 mg/kg/injection, schedule: Q07DX003 (ip), vehicle: saline with Tween-80): 93 % of control and 176 % of control
- T/C (dose: 10.0 mg/kg/injection, schedule: Q07DX003 (ip), vehicle: saline with Tween-80): 40 % of control and 84 % of control
- T/C (dose: 20.0 mg/kg/injection, schedule: Q07DX003 (ip), vehicle: saline with Tween-80): 25 % of control and 164 % of control

Structure (SMILES): CCSC(=O)N1c2ccc(OC)cc2C=CC1C#N (stereo unspecified)
- T/C (dose: 700.0 mg/kg/injection, schedule: Q07DX002 (ip), vehicle: saline with Tween-80): 84 % of control and 114 % of control

Structure (SMILES): CCN(CC)CCOC(=O)Cc1cccc2c(=O)cc(-c3ccc(Cl)cc3)oc12
- T/C [4]: 45 % of control and 71 % of control
- T/C [1]: 45 % of control and 92 % of control
- T/C [2]: 9 % of control and 43 % of control

Structure (SMILES): CCOC(=O)c1c[nH]c2oc(/C=N/N3CC(CN4CCOCC4)OC3=O)cc2c1=O (stereo unspecified)
- T/C (dose: 12.5 mg/kg/injection, schedule: Q07DX003 (ip), vehicle: saline): 108 % of control and 178 % of control
- T/C (dose: 50.0 mg/kg/injection, schedule: Q07DX003 (ip), vehicle: saline): 101 % of control and 175 % of control
- T/C (dose: 400.0 mg/kg/injection, schedule: Q07DX003 (ip), vehicle: saline): 73 % of control and 161 % of control

Structure (SMILES): O=C1c2ccccc2C(=O)c2c1cn1c2Cc2ccccc2C1
- T/C (dose: 150.0 mg/kg/injection, schedule: Q07DX002 (ip), vehicle: Klucel (hydroxypropylcellulose) (HPC)): 4 % of control (2×) and 30 % of control

Structure (SMILES): CC(=O)Oc1[nH]c(=O)c2cccc3c2c1CCC3
- T/C (dose: 800.0 mg/kg/injection, schedule: Q07DX002 (ip), vehicle: saline with Tween-80): 70 % of control and 171 % of control

Structure (SMILES): CCCCCCC/C=C/C(=O)OC1C(OC2C(OC(CCCCCCC)CC(=O)OC(CCCCCCC)CC(=O)O)OC(C)C(O)C2O)OC(C)C(O)C1O (stereo unspecified)
- T/C (dose: 56.0 mg/kg/injection, schedule: Q07DX002 (ip), vehicle: Klucel (hydroxypropylcellulose) (HPC)): 95 % of control, 105 % of control, 121 % of control

Structure (SMILES): O=C(O)CP(=O)(O)O
- T/C [2]: 60 % of control and 92 % of control
- T/C [5]: 115 % of control and 151 % of control

Structure (SMILES): OCCOCC(F)(F)F
- T/C [3]: 63 % of control and 216 % of control
- T/C [7]: 72 % of control and 100 % of control
- T/C (dose: 100.0 mg/kg/injection, schedule: Q07DX002 (ip), vehicle: saline with Tween-80): 78 % of control and 105 % of control

Structure (SMILES): O=C(O)CCCc1ccc(N(CCCl)CCCl)cc1
- T/C (dose: 7.5 mg/kg/injection, schedule: Q07DX002 (ip), vehicle: Klucel (hydroxypropylcellulose) (HPC)): 74 % of control, 96 % of control, 117 % of control
- T/C (dose: 30.0 mg/kg/injection, schedule: Q07DX002 (ip), vehicle: Klucel (hydroxypropylcellulose) (HPC)): 41 % of control, 59 % of control, 78 % of control

Structure (SMILES): C[C@H]1C[C@@H]2[C@H]([C@@H](O)C[C@@]3(C)[C@H]2CC[C@]3(O)C(=O)CO)[C@@]2(C)C=CC(=O)C=C12
- T/C [11]: 52 % of control and 92 % of control
- T/C [8]: 74 % of control and 112 % of control

Structure (SMILES): C[C@@H]1C[C@H]2[C@@H]3CCC4=CC(=O)C=C[C@]4(C)[C@@]3(F)[C@@H](O)C[C@]2(C)[C@@]1(O)C(=O)CO
- T/C [11]: 69 % of control, 84 % of control, 97 % of control
- T/C (dose: 25.0 mg/kg/injection, schedule: Q07DX002 (ip), vehicle: Klucel (hydroxypropylcellulose) (HPC)): 68 % of control, 87 % of control, 98 % of control
- T/C [8]: 37 % of control, 55 % of control, 71 % of control
- T/C [9]: 13 % of control, 58 % of control, 59 % of control

Structure (SMILES): Nc1nc(=O)n(C2OC(CO)C(O)C2O)cc1F (stereo unspecified)
- T/C [2]: 94 % of control and 121 % of control
- T/C [5]: 36 % of control and 103 % of control

Structure (SMILES): O=c1[nH]c(=O)n(C2CC(O)C(CO)O2)cc1Br (stereo unspecified)
- T/C [9]: 39 % of control and 181 % of control
- T/C (dose: 200.0 mg/kg/injection, schedule: Q07DX002 (ip), vehicle: Klucel (hydroxypropylcellulose) (HPC)): 57 % of control and 122 % of control
- T/C (dose: 1600.0 mg/kg/injection, schedule: Q07DX002 (ip), vehicle: Klucel (hydroxypropylcellulose) (HPC)): 90 % of control and 157 % of control

— PubChem BioAssay AID212 (DTP/NCI, 2004)
